This note sets out measurements from publication PMC5661268.

Amino acid sequences for entries named in this document (tags omitted). Residues count along the entry.
eGFP-DNA-PKcs-N (a.a. 1-426) (P78527, residues 1-426): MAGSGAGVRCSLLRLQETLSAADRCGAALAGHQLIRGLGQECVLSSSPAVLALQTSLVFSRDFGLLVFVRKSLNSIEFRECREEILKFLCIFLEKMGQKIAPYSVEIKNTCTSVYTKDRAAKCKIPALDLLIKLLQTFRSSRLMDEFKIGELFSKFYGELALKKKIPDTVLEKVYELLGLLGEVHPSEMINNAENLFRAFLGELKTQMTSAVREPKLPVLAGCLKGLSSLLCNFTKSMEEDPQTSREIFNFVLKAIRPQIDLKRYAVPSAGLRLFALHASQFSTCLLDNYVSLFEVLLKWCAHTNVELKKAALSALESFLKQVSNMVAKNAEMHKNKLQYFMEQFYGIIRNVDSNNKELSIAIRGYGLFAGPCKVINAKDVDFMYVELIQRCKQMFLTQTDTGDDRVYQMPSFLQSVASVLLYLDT
eGFP-DNA-PKcs-II (a.a. 427-1400) (P78527, residues 427-1400): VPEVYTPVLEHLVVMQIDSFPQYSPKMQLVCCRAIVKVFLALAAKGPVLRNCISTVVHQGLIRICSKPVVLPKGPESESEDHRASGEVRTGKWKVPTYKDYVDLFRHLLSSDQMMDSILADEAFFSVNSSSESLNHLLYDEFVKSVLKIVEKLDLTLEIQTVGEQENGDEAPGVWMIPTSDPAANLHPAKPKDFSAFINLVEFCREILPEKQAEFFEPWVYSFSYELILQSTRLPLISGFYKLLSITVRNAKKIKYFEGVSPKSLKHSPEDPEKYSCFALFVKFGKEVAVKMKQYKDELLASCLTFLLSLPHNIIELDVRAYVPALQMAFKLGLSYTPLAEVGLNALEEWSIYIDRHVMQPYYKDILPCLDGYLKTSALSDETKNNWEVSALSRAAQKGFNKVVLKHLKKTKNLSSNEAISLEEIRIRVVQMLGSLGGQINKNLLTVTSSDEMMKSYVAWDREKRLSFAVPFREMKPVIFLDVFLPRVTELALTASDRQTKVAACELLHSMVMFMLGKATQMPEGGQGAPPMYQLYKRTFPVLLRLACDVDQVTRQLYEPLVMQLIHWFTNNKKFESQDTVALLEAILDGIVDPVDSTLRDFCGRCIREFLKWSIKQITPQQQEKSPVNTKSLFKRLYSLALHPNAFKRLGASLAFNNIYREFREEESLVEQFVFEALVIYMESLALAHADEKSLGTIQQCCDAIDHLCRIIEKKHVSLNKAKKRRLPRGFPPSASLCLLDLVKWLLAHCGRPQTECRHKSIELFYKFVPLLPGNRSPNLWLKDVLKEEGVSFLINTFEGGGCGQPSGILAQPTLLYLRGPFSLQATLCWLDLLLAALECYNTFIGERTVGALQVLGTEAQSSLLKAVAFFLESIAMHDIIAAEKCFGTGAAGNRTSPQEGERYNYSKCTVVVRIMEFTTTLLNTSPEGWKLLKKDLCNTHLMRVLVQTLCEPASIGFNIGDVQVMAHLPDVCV
eGFP-DNA-PKcs-IV (a.a. 2401-3850) (P78527, residues 2401-3850): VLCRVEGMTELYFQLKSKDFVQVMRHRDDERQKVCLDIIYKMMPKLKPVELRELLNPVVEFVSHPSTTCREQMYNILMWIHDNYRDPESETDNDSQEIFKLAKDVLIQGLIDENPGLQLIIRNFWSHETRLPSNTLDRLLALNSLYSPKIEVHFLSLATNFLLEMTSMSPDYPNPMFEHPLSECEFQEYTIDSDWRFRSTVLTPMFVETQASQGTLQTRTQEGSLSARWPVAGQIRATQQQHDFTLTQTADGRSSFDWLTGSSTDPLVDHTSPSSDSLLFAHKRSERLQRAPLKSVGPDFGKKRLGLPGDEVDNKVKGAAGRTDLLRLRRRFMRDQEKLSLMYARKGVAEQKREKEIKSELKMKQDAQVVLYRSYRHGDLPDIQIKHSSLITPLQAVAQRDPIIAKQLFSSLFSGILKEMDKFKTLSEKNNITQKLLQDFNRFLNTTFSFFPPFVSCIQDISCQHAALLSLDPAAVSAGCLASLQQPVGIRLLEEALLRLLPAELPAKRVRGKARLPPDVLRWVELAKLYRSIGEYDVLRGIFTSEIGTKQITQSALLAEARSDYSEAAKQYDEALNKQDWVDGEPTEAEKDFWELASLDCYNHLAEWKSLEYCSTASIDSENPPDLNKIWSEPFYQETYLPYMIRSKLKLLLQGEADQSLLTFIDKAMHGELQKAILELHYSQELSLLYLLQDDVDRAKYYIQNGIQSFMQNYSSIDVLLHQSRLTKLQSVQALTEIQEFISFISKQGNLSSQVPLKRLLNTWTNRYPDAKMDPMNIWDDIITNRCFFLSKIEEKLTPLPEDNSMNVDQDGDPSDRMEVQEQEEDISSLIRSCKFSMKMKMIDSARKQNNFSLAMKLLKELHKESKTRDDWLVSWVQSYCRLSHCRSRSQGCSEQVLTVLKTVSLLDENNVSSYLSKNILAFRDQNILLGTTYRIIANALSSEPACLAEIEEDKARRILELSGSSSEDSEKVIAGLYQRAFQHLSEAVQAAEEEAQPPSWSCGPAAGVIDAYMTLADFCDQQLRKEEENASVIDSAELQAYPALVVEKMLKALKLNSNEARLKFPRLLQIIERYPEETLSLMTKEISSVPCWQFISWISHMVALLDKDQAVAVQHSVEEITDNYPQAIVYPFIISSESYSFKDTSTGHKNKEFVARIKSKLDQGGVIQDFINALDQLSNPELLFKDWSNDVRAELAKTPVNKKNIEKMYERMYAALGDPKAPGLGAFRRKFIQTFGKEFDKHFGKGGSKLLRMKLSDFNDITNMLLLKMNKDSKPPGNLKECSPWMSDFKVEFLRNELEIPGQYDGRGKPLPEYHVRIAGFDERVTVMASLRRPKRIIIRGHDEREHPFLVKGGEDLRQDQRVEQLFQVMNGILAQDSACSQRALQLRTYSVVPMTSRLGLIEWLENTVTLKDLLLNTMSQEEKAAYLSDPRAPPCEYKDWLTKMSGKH
eGFP-DNA-PKcs-C (a.a. 3700-4128) (P78527, residues 3700-4128): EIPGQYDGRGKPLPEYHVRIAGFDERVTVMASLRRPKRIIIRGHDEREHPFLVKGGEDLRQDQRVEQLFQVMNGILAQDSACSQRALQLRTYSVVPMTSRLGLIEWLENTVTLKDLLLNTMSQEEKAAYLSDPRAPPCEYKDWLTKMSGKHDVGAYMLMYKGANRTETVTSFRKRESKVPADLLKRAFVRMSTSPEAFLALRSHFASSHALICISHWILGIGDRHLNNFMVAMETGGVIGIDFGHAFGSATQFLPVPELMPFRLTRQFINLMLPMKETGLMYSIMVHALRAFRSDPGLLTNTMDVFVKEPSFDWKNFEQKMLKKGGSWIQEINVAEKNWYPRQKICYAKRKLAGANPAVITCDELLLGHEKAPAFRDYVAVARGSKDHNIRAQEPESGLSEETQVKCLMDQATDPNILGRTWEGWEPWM
UniProt P31749: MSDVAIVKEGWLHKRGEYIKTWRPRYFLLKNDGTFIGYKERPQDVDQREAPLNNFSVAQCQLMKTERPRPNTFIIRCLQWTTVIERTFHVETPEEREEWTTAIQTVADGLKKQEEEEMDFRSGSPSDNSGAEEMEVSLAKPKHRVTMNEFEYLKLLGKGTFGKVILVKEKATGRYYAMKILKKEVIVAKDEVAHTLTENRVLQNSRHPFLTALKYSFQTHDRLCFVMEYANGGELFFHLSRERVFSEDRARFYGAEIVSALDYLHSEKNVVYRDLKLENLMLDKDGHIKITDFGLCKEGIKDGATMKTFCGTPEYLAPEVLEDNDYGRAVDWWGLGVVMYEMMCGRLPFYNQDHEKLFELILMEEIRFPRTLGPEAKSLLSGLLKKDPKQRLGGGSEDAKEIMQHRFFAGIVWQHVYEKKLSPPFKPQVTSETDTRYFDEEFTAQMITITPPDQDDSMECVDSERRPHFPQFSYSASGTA
UniProt P31751: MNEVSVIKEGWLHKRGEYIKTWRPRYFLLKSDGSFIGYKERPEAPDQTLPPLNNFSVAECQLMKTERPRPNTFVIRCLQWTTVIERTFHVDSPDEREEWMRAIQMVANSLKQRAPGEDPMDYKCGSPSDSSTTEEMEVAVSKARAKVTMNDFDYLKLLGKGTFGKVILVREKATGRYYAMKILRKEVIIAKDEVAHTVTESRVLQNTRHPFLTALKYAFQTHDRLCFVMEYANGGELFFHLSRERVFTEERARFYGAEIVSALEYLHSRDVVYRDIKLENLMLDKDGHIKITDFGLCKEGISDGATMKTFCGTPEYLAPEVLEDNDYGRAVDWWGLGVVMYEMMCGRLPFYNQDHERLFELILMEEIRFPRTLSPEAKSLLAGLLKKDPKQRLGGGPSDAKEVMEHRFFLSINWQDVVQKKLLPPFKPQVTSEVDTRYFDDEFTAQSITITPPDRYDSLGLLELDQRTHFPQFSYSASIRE
UniProt Q9Y243: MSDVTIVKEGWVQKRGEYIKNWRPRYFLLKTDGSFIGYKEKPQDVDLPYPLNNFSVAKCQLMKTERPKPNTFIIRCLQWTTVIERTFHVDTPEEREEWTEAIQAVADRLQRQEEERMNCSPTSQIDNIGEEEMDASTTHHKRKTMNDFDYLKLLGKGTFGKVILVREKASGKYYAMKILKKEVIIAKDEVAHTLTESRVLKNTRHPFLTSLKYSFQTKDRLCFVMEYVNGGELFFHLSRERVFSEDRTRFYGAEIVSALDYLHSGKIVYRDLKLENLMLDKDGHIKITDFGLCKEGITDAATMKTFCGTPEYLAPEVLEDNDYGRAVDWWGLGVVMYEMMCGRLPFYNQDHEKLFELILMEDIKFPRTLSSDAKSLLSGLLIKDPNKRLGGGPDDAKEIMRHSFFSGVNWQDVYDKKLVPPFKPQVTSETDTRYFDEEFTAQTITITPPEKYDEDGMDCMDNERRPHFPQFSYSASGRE

Assay [1] has as its target eGFP-DNA-PKcs-N (a.a. 1-426) (UniProt P78527). Kind of assay: co-IP; A549 cells transfected with eGFP-DNA-PKcs-N only, mock irradiated or 4 Gy, lysed 5 and 10 min post-irradiation; GFP-Trap on the soluble fraction; blot for the endogenous Akt isoforms.
Assay [2] has the same target. The experiment in a line: co-IP; parental MDA-MB-231 cells co-transfected with one of the Akt isoforms and eGFP-DNA-PKcs-N (Supplementary Figure S3).
The target of assay [3] is eGFP-DNA-PKcs-II (a.a. 427-1400) (UniProt P78527). Kind of assay: co-IP; A549 cells co-transfected with an mCherry-tagged Akt isoform and eGFP or an eGFP-tagged DNA-PKcs fragment; 48 h later irradiated with 4 Gy (mock irradiated too in Supplementary Figure S1; DMSO or MK2206 for 1 h before irradiation in Figure 3a), lysed 10 min later; eGFP precipitated from the soluble fraction with GFP-Trap; wash 10 mM Tris/Cl, 150 mM NaCl, 0.5 mM EDTA; blot with Akt isoform-specific antibodies.

Assay [4] concerns the target eGFP-DNA-PKcs-C (a.a. 3700-4128) (UniProt P78527). Described as above.
In assay [5] the target is eGFP-DNA-PKcs-N (a.a. 1-426) (UniProt P78527). The description is as above.
For assay [6], the target named is eGFP-DNA-PKcs-IV (a.a. 2401-3850) (UniProt P78527). The description is as above.

No constants are given. Whether binding was seen depends on the method and setting. In cells and extracts the contact can be indirect. Some results given as binding are weak or reduced against the parent protein; the word gives no strength.

For “endogenous Akt1 (from UniProt P31749 1-480)”, in assay [1], the binding result was “binds”.

On to “endogenous Akt2 (from UniProt P31751 1-481)”, for which the binding entry in assay [1] is “no binding”.

On to “endogenous Akt3 (from UniProt Q9Y243 1-479)”, for which the binding result in assay [1] was “binds weakly”.

As to “mCherry-tagged full-length Akt1 (from UniProt P31749 1-480)”, the binding entry in assay [2] is reported as “binds”; in assay [3], “binds weakly”; in assay [4], “binds”; in assay [5], “binds”; in assay [6], “binds weakly”.

With “mCherry-tagged full-length Akt2 (from UniProt P31751 1-481)”, the binding result in assay [2], in assay [3], in assay [4], in assay [5] and in assay [6] was “no binding” each time.

As to “mCherry-tagged full-length Akt3 (from UniProt Q9Y243 1-479)”, the binding result in assay [2], in assay [3], in assay [4], in assay [5] and in assay [6] was “binds” in each case.
